Values quoted from earlier work as cited in PMC11006913.
Some of the results follow.

Legend:
[1] = biological target: PROP1 R112Q (Homo sapiens) (UniProt O75360); conditions: PBM; conditions not shown; double strand, one strand shown; scale: upbm affinity estimate (log intensity, higher = more binding, comparable within an allelic series)
[2] = biological target: PROP1 R99Q (Homo sapiens) (UniProt O75360); conditions: PBM; conditions not shown; double strand, one strand shown; scale: upbm affinity estimate (log intensity, higher = more binding, comparable within an allelic series)

Q: For CTGGCGCA [8-mer CTGGCGCA], which binding signal [1] is on record?
A: 11.1

Q: What about the binding signal [2] of the same sequence?
A: 11.1

Q: With CTGGCCCC [8-mer CTGGCCCC] as the sequence, how does the binding signal [1] read?
A: 10.8

Q: What about the binding signal [2] of the same sequence?
A: 10.9

Q: What does the source list for AAGCCCGG [8-mer AAGCCCGG]?
A: binding signal [1]: 11; binding signal [2]: 11

Q: Which binding signal [1] does the source give for CCAGCCGC [8-mer CCAGCCGC] here?
A: 10.9

Q: What about the binding signal [2] of the same sequence?
A: 10.9

Q: Which binding signal [1] does the source give for GGGACGAA [8-mer GGGACGAA] here?
A: 11

Q: What about the binding signal [2] of the same sequence?
A: 11

Q: Which binding signal [1] does the source give for CCCACGAC [8-mer CCCACGAC] here?
A: 10.9

Q: And the binding signal [2]?
A: 11

Q: Which results are given for CCCCCGTA [8-mer CCCCCGTA]?
A: binding signal [1]: 10.9; binding signal [2]: 10.9

Q: Which results are given for GGAACCCC [8-mer GGAACCCC]?
A: binding signal [1]: 10.9; binding signal [2]: 10.9

Q: With CTCGCGCC [8-mer CTCGCGCC] as the sequence, how does the binding signal [1] read?
A: 10.9

Q: What about the binding signal [2] of the same sequence?
A: 10.9

Q: For CCGGCCCG [8-mer CCGGCCCG], which binding signal [1] is on record?
A: 10.8

Q: What about the binding signal [2] of the same sequence?
A: 10.8

Q: For GCGGCACC [8-mer GCGGCACC], which binding signal [1] is on record?
A: 10.9

Q: What about the binding signal [2] of the same sequence?
A: 11

Q: With CGCAAGCG [8-mer CGCAAGCG] as the sequence, how does the binding signal [1] read?
A: 10.9

Q: And the binding signal [2]?
A: 11

Q: What does the source list for CCCCTCAC [8-mer CCCCTCAC]?
A: binding signal [1]: 10.9; binding signal [2]: 11

Q: For CCCCTTCG [8-mer CCCCTTCG], which binding signal [1] is on record?
A: 10.9

Q: And the binding signal [2]?
A: 10.8

Q: Which binding signal [1] does the source give for GAGGCGAC [8-mer GAGGCGAC] here?
A: 11

Q: What about the binding signal [2] of the same sequence?
A: 11

Q: For AATCAATG [8-mer AATCAATG], which binding signal [1] is on record?
A: 12.2

Q: And the binding signal [2]?
A: 11.7

Q: For CGGCCGTC [8-mer CGGCCGTC], which binding signal [1] is on record?
A: 11

Q: And the binding signal [2]?
A: 11

Q: Which binding signal [1] does the source give for CCGGCGGC [8-mer CCGGCGGC] here?
A: 10.8

Q: What about the binding signal [2] of the same sequence?
A: 10.8

Q: Which binding signal [1] does the source give for AAGGCCCG [8-mer AAGGCCCG] here?
A: 10.8

Q: What about the binding signal [2] of the same sequence?
A: 10.8

Q: For GCGACGAC [8-mer GCGACGAC], which binding signal [1] is on record?
A: 10.8

Q: What about the binding signal [2] of the same sequence?
A: 10.9

Q: What does the source list for CGCGGGGC [8-mer CGCGGGGC]?
A: binding signal [1]: 10.8; binding signal [2]: 10.8

Q: Which results are given for CCCTTCCG [8-mer CCCTTCCG]?
A: binding signal [1]: 10.9; binding signal [2]: 10.9

Q: What does the source list for ACCGAAAG [8-mer ACCGAAAG]?
A: binding signal [1]: 10.9; binding signal [2]: 11

Q: For CCGACGGC [8-mer CCGACGGC], which binding signal [1] is on record?
A: 10.9

Q: What about the binding signal [2] of the same sequence?
A: 10.8

Q: With AAGCCGGC [8-mer AAGCCGGC] as the sequence, how does the binding signal [1] read?
A: 10.9

Q: And the binding signal [2]?
A: 10.9

Q: With CTGCCGCC [8-mer CTGCCGCC] as the sequence, how does the binding signal [1] read?
A: 11

Q: And the binding signal [2]?
A: 10.9

Q: What does the source list for GACGTTGC [8-mer GACGTTGC]?
A: binding signal [1]: 11; binding signal [2]: 11.1

Q: Which binding signal [1] does the source give for AGGGCAGG [8-mer AGGGCAGG] here?
A: 11

Q: And the binding signal [2]?
A: 11

Q: Which binding signal [1] does the source give for CCTGAAGG [8-mer CCTGAAGG] here?
A: 10.9

Q: What about the binding signal [2] of the same sequence?
A: 11

Q: For CCAAGGGG [8-mer CCAAGGGG], which binding signal [1] is on record?
A: 10.8

Q: What about the binding signal [2] of the same sequence?
A: 11

Q: Which results are given for AATGCAAT [8-mer AATGCAAT]?
A: binding signal [1]: 12; binding signal [2]: 11.6

Q: For AGCGCCGG [8-mer AGCGCCGG], which binding signal [1] is on record?
A: 10.9

Q: And the binding signal [2]?
A: 11

Q: Which binding signal [1] does the source give for CCCGAGCC [8-mer CCCGAGCC] here?
A: 11

Q: And the binding signal [2]?
A: 11

Q: Which binding signal [1] does the source give for CCAAAAGC [8-mer CCAAAAGC] here?
A: 10.9

Q: And the binding signal [2]?
A: 10.9

Q: With GCCCGAGC [8-mer GCCCGAGC] as the sequence, how does the binding signal [1] read?
A: 10.9

Q: What about the binding signal [2] of the same sequence?
A: 10.8

Q: Which results are given for GCGGTCCC [8-mer GCGGTCCC]?
A: binding signal [1]: 10.8; binding signal [2]: 10.9

Q: For CGGCCAGC [8-mer CGGCCAGC], which binding signal [1] is on record?
A: 10.9

Q: What about the binding signal [2] of the same sequence?
A: 10.8

Q: For CTCCGGAG [8-mer CTCCGGAG], which binding signal [1] is on record?
A: 11.1

Q: What about the binding signal [2] of the same sequence?
A: 11.1

Q: With CCCGGGAC [8-mer CCCGGGAC] as the sequence, how does the binding signal [1] read?
A: 10.9

Q: What about the binding signal [2] of the same sequence?
A: 11

Q: With CTGAGCCC [8-mer CTGAGCCC] as the sequence, how does the binding signal [1] read?
A: 11

Q: What about the binding signal [2] of the same sequence?
A: 11

Q: What does the source list for CCCGTGCC [8-mer CCCGTGCC]?
A: binding signal [1]: 10.9; binding signal [2]: 10.8

Q: Which binding signal [1] does the source give for CGAGCAAG [8-mer CGAGCAAG] here?
A: 10.9

Q: And the binding signal [2]?
A: 11

Q: Which binding signal [1] does the source give for CCACGTGG [8-mer CCACGTGG] here?
A: 10.6

Q: And the binding signal [2]?
A: 10.7

Q: Which results are given for GCGTCCCA [8-mer GCGTCCCA]?
A: binding signal [1]: 10.8; binding signal [2]: 10.9

Q: Which binding signal [1] does the source give for TCCATTAA [8-mer TCCATTAA] here?
A: 12.1

Q: What about the binding signal [2] of the same sequence?
A: 11.8

Q: Which binding signal [1] does the source give for CGGGCCCA [8-mer CGGGCCCA] here?
A: 10.9

Q: And the binding signal [2]?
A: 10.9

Q: Which results are given for ACCCGCGT [8-mer ACCCGCGT]?
A: binding signal [1]: 10.8; binding signal [2]: 10.8

Q: For GAGTTAAA [8-mer GAGTTAAA], which binding signal [2] is on record?
A: 11.3

Q: For AGGACCGC [8-mer AGGACCGC], which binding signal [1] is on record?
A: 11

Q: And the binding signal [2]?
A: 11

Q: Which results are given for AATTGGAT [8-mer AATTGGAT]?
A: binding signal [1]: 12.6; binding signal [2]: 12

Q: Which results are given for TAATTTAA [8-mer TAATTTAA]?
A: binding signal [1]: 12.6; binding signal [2]: 11.9

Q: With AATTTAAT [8-mer AATTTAAT] as the sequence, how does the binding signal [1] read?
A: 12.5

Q: And the binding signal [2]?
A: 11.9

Q: For CCGCCGGA [8-mer CCGCCGGA], which binding signal [1] is on record?
A: 10.8

Q: And the binding signal [2]?
A: 10.9

Q: For AGGGGTTC [8-mer AGGGGTTC], which binding signal [1] is on record?
A: 10.8

Q: What about the binding signal [2] of the same sequence?
A: 10.9

Q: For AGCGAGCG [8-mer AGCGAGCG], which binding signal [1] is on record?
A: 11

Q: What about the binding signal [2] of the same sequence?
A: 10.9

Q: Which binding signal [2] does the source give for AATTACCG [8-mer AATTACCG] here?
A: 12.1

Q: Which results are given for AATCAAAT [8-mer AATCAAAT]?
A: binding signal [1]: 12.4; binding signal [2]: 11.8

Q: For AGTCGCCC [8-mer AGTCGCCC], which binding signal [1] is on record?
A: 11

Q: What about the binding signal [2] of the same sequence?
A: 11

Q: With CTCCTTCC [8-mer CTCCTTCC] as the sequence, how does the binding signal [1] read?
A: 10.8

Q: What about the binding signal [2] of the same sequence?
A: 10.9

Q: Which binding signal [1] does the source give for CGGCGGCC [8-mer CGGCGGCC] here?
A: 10.8

Q: What about the binding signal [2] of the same sequence?
A: 10.8

Q: Which results are given for GCGGTGCC [8-mer GCGGTGCC]?
A: binding signal [1]: 10.9; binding signal [2]: 10.9

Q: What does the source list for CGCACGCC [8-mer CGCACGCC]?
A: binding signal [1]: 10.8; binding signal [2]: 10.8

Q: Which results are given for GCCCCCGA [8-mer GCCCCCGA]?
A: binding signal [1]: 10.9; binding signal [2]: 10.9

Q: Which binding signal [1] does the source give for AATTGAAT [8-mer AATTGAAT] here?
A: 12.5

Q: And the binding signal [2]?
A: 12

Q: With ACAGCGCG [8-mer ACAGCGCG] as the sequence, how does the binding signal [1] read?
A: 10.9

Q: What about the binding signal [2] of the same sequence?
A: 11

Q: For AGGGAAAC [8-mer AGGGAAAC], which binding signal [1] is on record?
A: 10.9

Q: And the binding signal [2]?
A: 10.9
